# Reference: PubChem BioAssay AID1347428 (National Center for Advancing Translational Sciences (NCATS), 2020)
# In all, about 91,000 compounds went through this assay and about 290 (0.32%) were called active. Inconclusive means that the source gave no clear call. Such entries were picked first, then a sample of the others. Calls come from the whole dose curve; as a rule, active = well fitted inhibition curve with a large enough effect; inconclusive = small, poorly fitted or top-dose-only effect; inactive = no such curve, though single readings can be large or run the other way. Potencies beside an inconclusive call are fits to weak or partial responses and may not hold up.
# Target: Single-stranded DNA cytosine deaminase (Homo sapiens) (UniProt Q9GZX7)
# Assay: Primary qHTS assay for inhibitors of Activation Induced Cytidine Deaminase (AID): AID signal; note: nearly all actives have a fitted effect of over 25% in size
# Conditions: AID deamination FRET fluorescence, UDG-coupled, 4 h; activity change, negative = inhibition: at 115 µM (top of the series)
# % is set by controls: 0 for no effect and ±100 for the full control effect; potency is the fitted concentration of half-maximal effect; tags give direction and shape of the fitted curve.
# Sequence of UniProt Q9GZX7 (Q9GZX7 whole entry, looked up): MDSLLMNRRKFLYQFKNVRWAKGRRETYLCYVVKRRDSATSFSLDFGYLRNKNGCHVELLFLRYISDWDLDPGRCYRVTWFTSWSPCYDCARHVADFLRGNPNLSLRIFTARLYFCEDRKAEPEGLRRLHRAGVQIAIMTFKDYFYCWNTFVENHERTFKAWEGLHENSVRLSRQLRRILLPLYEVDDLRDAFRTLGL
SMILES,Potency,"activity change, negative = inhibition"
CCOc1ccc2nc(Cl)c(C3CC(c4ccc(C)cc4)=NN3C(=O)CCC(=O)O)cc2c1 (stereo unspecified),"inconclusive: 50.1 µM [inhibitor, partial curve, poor fit]",–
COc1ccc(CN(C)c2ccc(-c3nc(-c4ccc(OC)c(OC)c4)no3)cc2[N+](=O)[O-])cc1,"inconclusive: 56.2 µM [inhibitor, partial curve, poor fit]",–
COc1ccc(C(=O)c2cn(Cc3ccccc3)c3ccccc3c2=O)cc1OC,"inconclusive: 20 µM [inhibitor, full curve, poor fit]",–
Cc1ccc(S(=O)(=O)Cc2nc(-c3ccc(C(=O)NCCN4CCOCC4)cc3)oc2C)cc1,–,inactive: -8.19%
COc1ccc(-n2nc3c(N4CCC(C(=O)N5CCC(C)CC5)CC4)nnc(C)c3c2C)cc1,"inconclusive: 50.1 µM [inhibitor, partial curve, poor fit]",–
Cc1cccc(-c2cc(C(=O)O)c3ccc(C)c(C)c3n2)c1,–,inactive: -4.98%
CCC(=O)N1c2ccccc2CC1C(=O)NCCCN1CCN(c2ccc(OC)cc2)CC1 (stereo unspecified),–,inactive: 7.83%
O=c1ccc(-c2ccccc2)nn1Cc1c(F)cccc1Cl,"inconclusive: 56.2 µM [inhibitor, partial curve, poor fit]",–
Cc1ccc(Cl)cc1N1CCN(C(=O)c2ccc3c(Cl)c4c(nc3c2)CCCC4)CC1,"inconclusive: 31.6 µM [inhibitor, full curve]",–
COc1cccc(-c2nc(CS(=O)(=O)CC(=O)N3CCN(c4ccccc4)CC3)c(C)o2)c1,"inconclusive: 50.1 µM [inhibitor, partial curve, poor fit]",–
CCC(=O)Nc1sc2c(c1C#N)CCC(C)C2 (stereo unspecified),–,inactive: -5.87%
CC1CCC(NC(=O)c2ccc(CSc3nc4ccncc4n3Cc3ccc(F)cc3)cc2)CC1 (stereo unspecified),"inconclusive: 35.5 µM [inhibitor, full curve, poor fit]",–
Cc1ccc(S(=O)(=O)c2cn(Cc3ccccc3)c3cc(N4CCOCC4)c(F)cc3c2=O)cc1,"inconclusive: 17.8 µM [inhibitor, full curve, poor fit]",–
CCc1ccc(NC(=O)c2cc(S(=O)(=O)NC3CCCCCC3)ccc2F)cc1,"inconclusive: 100 µM [inhibitor, partial curve, poor fit]",–
COC(=O)/C(C#N)=C\c1cccc(Oc2ccc(Cl)cc2)c1,"inconclusive: 50.1 µM [inhibitor, partial curve, poor fit]",–
CC(c1nc2ccccc2s1)N(C)S(=O)(=O)/C=C/c1ccccc1 (stereo unspecified),–,inactive: -3.29%
COc1cc(C2CC(=O)Nc3c(C(=O)O)cn(-c4ccc(F)cc4)c32)cc(OC)c1OC (stereo unspecified),"inconclusive: 79.4 µM [inhibitor, partial curve, poor fit]",–
Cc1ccc(-c2noc(CNC(=O)c3ccc(C)c(Cl)c3)n2)cc1,"inconclusive: 79.4 µM [inhibitor, partial curve, poor fit]",–
CCc1ccc(OCC(=O)N(Cc2ccc(C(C)C)cc2)C2CCS(=O)(=O)C2)cc1 (stereo unspecified),"inconclusive: 50.1 µM [inhibitor, partial curve, poor fit]",–
O=C(O)/C(=C/C=C/c1ccccc1)NC(=O)c1ccccc1,–,inactive: 1.95%
Cc1ccc2nc(/C(C#N)=C\c3ccc(-c4cc(C(=O)O)cc(C(=O)O)c4)o3)[nH]c2c1,–,inactive: 12.2%

SMILES,Potency,"activity change, negative = inhibition"
COc1cccc(-c2cc(C(F)(F)F)n3ncc(C(=O)OC(C)C)c3n2)c1,"inconclusive: 100 µM [inhibitor, single point]",–
Cc1ccc2c(CC(=O)N(Cc3ccc(N(C)C)cc3)Cc3ccco3)coc2c1C,"inconclusive: 50.1 µM [inhibitor, partial curve, poor fit]",–
O=S(=O)(NCCc1nnc2ccc(SCc3ccccc3Cl)nn12)c1ccccc1,"inconclusive: 39.8 µM [inhibitor, full curve, poor fit]",–
CCOC(=O)C1=C(C)NC(C)=C(C(=O)OCC)C1c1c(F)c(F)c(F)c(F)c1F,"inconclusive: 56.2 µM [inhibitor, partial curve, poor fit]",–
COc1cc(/C=C(/C#N)c2nc3ccccc3[nH]2)ccc1OCCc1ccccc1,–,inactive: -8.94%
COc1ccccc1N1CCN(CC(O)COc2ccc(Cl)c(C)c2)CC1 (stereo unspecified),"inconclusive: 22.4 µM [inhibitor, single point]",–
COc1ccc(C2=NC(c3ccccc3)=Nc3ccc(C)cc3N2)cc1,–,inactive: 11%
CCN(c1ccc(OC)cc1)S(=O)(=O)c1ccc2[nH]c3c(c2c1)CCCCC3,"inconclusive: 39.8 µM [inhibitor, partial curve, poor fit]",–
CCn1c(SCC(=O)Nc2cc(C)ccc2F)nnc1-c1ccccc1O,–,inactive: 4.78%
COc1ccc(-n2c(-c3cccc(F)c3)nc3c(cnn3-c3ccc(C)cc3)c2=O)cc1,"inconclusive: 50.1 µM [inhibitor, partial curve, poor fit]",–
COc1ccc(C(=O)c2cn(CC(=O)Nc3cc(OC)cc(OC)c3)c3ccc(OC)cc3c2=O)cc1,"inconclusive: 50.1 µM [inhibitor, partial curve, poor fit]",–
COC(=O)c1ccccc1NC(=O)Cn1c(=O)n(CCC(=O)NCc2ccc3c(c2)OCO3)c(=O)c2ccccc21,"inconclusive: 89.1 µM [inhibitor, single point]",–
CCOc1ccc(NS(=O)(=O)c2ccc3c(c2)NC(=O)CCS3)cc1,–,inactive: 17.7%
Cc1cc(C)c(OCC(=O)N(Cc2ccc(N(C)C)cc2)Cc2ccco2)c(C)c1,"inconclusive: 56.2 µM [inhibitor, partial curve, poor fit]",–
CCCCN(C)C(=O)c1ccc2c(=O)n3nc(Nc4cc(C)ccc4C)sc3nc2c1,"inconclusive: 25.1 µM [inhibitor, partial curve, poor fit]",–
Cc1ccc(S(=O)(=O)N2CCN(C(=O)c3cc4c(s3)CCC4)CC2)cc1,"inconclusive: 89.1 µM [inhibitor, partial curve, poor fit]",–
CCOC(=O)C1CCCN(c2nc3c(S(=O)(=O)c4ccc(CC)cc4)nnn3c3ccsc23)C1 (stereo unspecified),"inconclusive: 20 µM [inhibitor, full curve, poor fit]",–
Cc1c(C(=O)NCc2ccc(F)cc2)oc2ccc(S(=O)(=O)N3CCCCC3)cc12,"inconclusive: 25.1 µM [inhibitor, full curve, poor fit]",–
CC1(C)C2CC=C(/C=N/NC(=S)Nc3ccc(SC(F)F)cc3)C1C2 (stereo unspecified),–,inactive: -8.18%
CCCCCOc1ccc(/C=C/C(=O)Nc2sc(C)c(C)c2C(=O)OCC)cc1OC,"inconclusive: 17.8 µM [inhibitor, single point]",–
COc1cc(C2CC(=O)Nc3nc(N4CCCCC4)sc32)cc(OC)c1OC (stereo unspecified),active: 35.5 µM,–

SMILES,Potency,"activity change, negative = inhibition"
CCc1cccc(NC(=O)c2cc3c(=O)n(Cc4ccccc4)ccc3nc2C)c1,"inconclusive: 56.2 µM [inhibitor, partial curve, poor fit]",–
CC(C)c1ccc(/C=C(/C#N)c2nc3ccccc3o2)cc1,–,inactive: -9.39%
CC(C(=O)NCCSCc1cccc(Cl)c1)N(c1ccccc1)S(C)(=O)=O (stereo unspecified),"inconclusive: 79.4 µM [inhibitor, partial curve, poor fit]",–
Cc1ccc(-n2c(C)cc(C(=O)C(=O)Nc3ccccc3)c2C)c(C)c1,"inconclusive: 35.5 µM [inhibitor, full curve]",–
CCOCCCNC(=O)c1ccc(-n2c(-c3ccccc3)cc3c2CCCC3)cc1,"inconclusive: 56.2 µM [inhibitor, partial curve, poor fit]",–
Fc1ccc(-n2ncc3c(NC4CCCCC4)ncnc32)cc1,–,inactive: -11.9%
CCc1nc2ccc(C(=O)NCCc3ccccc3OC)cc2nc1CC,"inconclusive: 22.4 µM [inhibitor, full curve]",–
CCN1CCSc2ccc(C(=O)NCc3ccc(OC(C)C)cc3)cc21,"inconclusive: 10 µM [inhibitor, full curve, poor fit]",–
CCc1cccc(NC(=O)C2CCCN(c3ncnc4onc(-c5ccc(F)cc5)c34)C2)c1 (stereo unspecified),"inconclusive: 56.2 µM [inhibitor, partial curve, poor fit]",–
Cc1ccc(NC(=O)c2nc(S(C)(=O)=O)ncc2N(Cc2ccc(C(C)(C)C)cc2)Cc2ccco2)cc1C,"inconclusive: 22.4 µM [inhibitor, full curve]",–
COC(=O)c1cccc(CNc2ccc3c4c(cccc24)CC3)c1,–,inactive: 7.37%
Cc1cc(C)c(C(=O)COC(=O)c2ccc(N3CCCC3=O)cc2)cc1C,–,inactive: 4.89%
CN(C(=O)c1ccc2c(c1)N(Cc1cccc(Cl)c1)C(=O)c1ccccc1S2(=O)=O)C1CCCCC1,"inconclusive: 22.4 µM [inhibitor, full curve, poor fit]",–
Cc1ccc(CN2CCC(CNC(=O)c3cnn(-c4ccccc4Cl)c3C3CCN(C(=O)OC(C)(C)C)CC3)CC2)cc1,"inconclusive: 14.1 µM [inhibitor, full curve, poor fit]",–
CC(=O)N1CCc2cc(Br)cc(S(=O)(=O)CCC(=O)N3CCN(c4ccc(F)cc4)CC3)c21,"inconclusive: 89.1 µM [inhibitor, single point]",–
Cc1c(C(=O)N(Cc2ccccc2F)C2CCS(=O)(=O)C2)oc2ccccc12 (stereo unspecified),"inconclusive: 89.1 µM [inhibitor, partial curve, poor fit]",–
O=C(CSc1nnc(-c2ccccc2Cl)o1)N1CCCc2ccccc21,active: 28.2 µM,–
Brc1cccc(-c2noc(-c3ccco3)n2)c1,–,inactive: -11.4%
Cc1oc(-c2ccc(Cl)cc2)nc1CN1CCCC(C(=O)NCCc2ccc(Cl)cc2)C1 (stereo unspecified),"inconclusive: 17.8 µM [inhibitor, full curve]",–
